The supplement of paper PMC4967469

Tests used:
Experiment in all cases: Viability of human cancer cell lines after 72 h of drug (GDSC screen)
Bexarotene = compound: C=C(c1ccc(C(=O)O)cc1)c1cc2c(cc1C)C(C)(C)CCC2(C)C [Bexarotene]; conditions: top dose 8 µM
Experimental: (§1)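 Human cancer cell lines in 384-well plates, medium with 10% serum, drug for 72 h over a 256-fold dose range (nine 2-fold or five 4-fold steps up to the top dose). Adherent lines were fixed and stained with the nucleic acid dye Syto60, suspension lines read with resazurin; signal relative to control wells, capped at 0 and 100%. One two-parameter sigmoid per drug and line, fitted in a mixed model over all curves with the slope shared within a line.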

NPK76-II-72-1 = compound: COc1cc(C(=O)NC2CCN(C)CC2)ccc1Nc1ncc2c(n1)N(C1CCCC1)C(C)CC(=O)N2C [NPK76-II-72-1]; conditions: top dose 10.24 µM; top dose inferred
Experimental: as §1

YK 4-279 = compound: COc1ccc(C(=O)CC2(O)C(=O)Nc3c(Cl)ccc(Cl)c32)cc1 [YK 4-279]; conditions: top dose 10 µM
Experimental: as §1

BMS-345541 = compound: Cc1ccc2nc(NCCN)c3ncc(C)n3c2c1 [BMS-345541]; conditions: top dose 16 µM
Experimental: as §1

GSK-650394 = compound: O=C(O)c1ccc(-c2c[nH]c3ncc(-c4ccccc4)cc23)cc1C1CCCC1 [GSK-650394]; conditions: top dose 16 µM; top dose inferred
Experimental: as §1

XAV 939 = compound: Oc1nc(-c2ccc(C(F)(F)F)cc2)nc2c1CSCC2 [XAV 939]; conditions: top dose 5 µM; top dose inferred
Experimental: as §1

AZD7762 = compound: NC(=O)Nc1cc(-c2cccc(F)c2)sc1C(=O)N[C@H]1CCCNC1 [AZD7762]; conditions: top dose 2 µM
Experimental: as §1

Cell Line | AUC (Bexarotene) | IC50 (Bexarotene) [µM] | AUC (NPK76-II-72-1) | IC50 (NPK76-II-72-1) [µM] | AUC (YK 4-279) | IC50 (YK 4-279) [µM] | AUC (BMS-345541) | IC50 (BMS-345541) [µM] | AUC (GSK-650394) | IC50 (GSK-650394) [µM] | AUC (XAV 939) | IC50 (XAV 939) [µM] | AUC (AZD7762) | IC50 (AZD7762) [µM]
NCI-H1299 (large cell lung carcinoma, adherent) | 0.93 | > 8 | 0.941 | > 10.2 | 0.697 | 2.56 | 0.93 | > 16 | 0.751 | 6.37 | 0.88 | > 5 | – | –
NCI-H1573 (lung adenocarcinoma, adherent) | 0.987 | > 8 | 0.961 | > 10.2 | 0.896 | > 10 | 0.921 | > 16 | 0.971 | > 16 | 0.99 | > 5 | – | –
NCI-H1650 (lung adenocarcinoma, adherent) | – | – | – | – | 0.78 | 5.52 | – | – | – | – | – | – | – | –
NCI-H1793 (lung adenocarcinoma, adherent) | 0.951 | > 8 | 0.973 | > 10.2 | 0.897 | > 10 | 0.962 | > 16 | 0.98 | > 16 | 0.951 | > 5 | – | –
NCI-H2030 (lung adenocarcinoma, adherent) | 0.918 | > 8 | 0.821 | 7.07 | 0.804 | 5.83 | 0.833 | 12.4 | 0.778 | 7.45 | 0.912 | > 5 | – | –
NCI-H2066 (small cell lung carcinoma, adherent) | – | – | – | – | 0.867 | > 10 | – | – | – | – | 0.958 | > 5 | – | –
NCI-H2122 (lung adenocarcinoma, adherent) | 0.779 | 3.04 | 0.945 | > 10.2 | – | – | 0.954 | > 16 | 0.656 | 2.63 | 0.732 | 1.36 | 0.539 | 0.159
NCI-H2228 (lung adenocarcinoma, adherent) | 0.829 | > 8 | 0.904 | > 10.2 | 0.809 | 8.99 | 0.891 | > 16 | 0.624 | 2.62 | – | – | – | –
PC-3 (prostate, adherent) | 0.93 | > 8 | 0.849 | > 10.2 | 0.85 | > 10 | 0.899 | > 16 | 0.98 | > 16 | 0.955 | > 5 | – | –
RPMI-7951 (melanoma, adherent) | 0.987 | > 8 | 0.914 | > 10.2 | – | – | 0.859 | 12.6 | 0.883 | > 16 | 0.984 | > 5 | 0.625 | 0.273
RS4-11 (leukaemia, suspension) | 0.955 | > 8 | 0.705 | 2.28 | 0.846 | 6.38 | 0.841 | 9.81 | 0.749 | 4.8 | 0.971 | > 5 | – | –
SJSA-1 (bone, adherent) | 0.923 | > 8 | 0.911 | > 10.2 | – | – | 0.889 | > 16 | 0.832 | 12.1 | 0.979 | > 5 | 0.678 | 0.421
SK-LU-1 (lung adenocarcinoma, adherent) | 0.857 | > 8 | 0.933 | > 10.2 | 0.711 | 2.94 | 0.919 | > 16 | 0.658 | 3.11 | 0.963 | > 5 | – | –
SK-MEL-2 (melanoma, adherent) | 0.951 | > 8 | 0.955 | > 10.2 | 0.735 | 3.01 | 0.888 | > 16 | 0.975 | > 16 | 0.964 | > 5 | – | –
SK-N-AS (neuroblastoma, adherent) | 0.983 | > 8 | 0.981 | > 10.2 | – | – | 0.833 | 12.6 | 0.982 | > 16 | 0.982 | > 5 | 0.627 | 0.296
SKM-1 (haematopoietic neoplasm, suspension) | – | – | – | – | 0.738 | 3.26 | – | – | – | – | 0.982 | > 5 | – | –
SNU-1040 (large intestine, adherent) | – | – | 0.857 | > 10.2 | 0.904 | > 10 | 0.826 | 14.5 | – | – | 0.965 | > 5 | – | –
SNU-C2B (large intestine, adherent) | 0.923 | > 8 | 0.815 | 7.98 | – | – | 0.823 | 13.6 | 0.916 | > 16 | 0.978 | > 5 | 0.723 | 0.665
SU-DHL-8 (B-cell lymphoma, suspension) | 0.871 | 6.69 | 0.529 | 0.764 | 0.978 | > 10 | 0.726 | 4.16 | 0.903 | > 16 | 0.986 | > 5 | – | –
SU-DHL-10 (B-cell lymphoma, suspension) | – | – | 0.601 | 1.12 | 0.981 | > 10 | 0.625 | 2 | – | – | 0.997 | > 5 | – | –
SW1116 (large intestine, adherent) | – | – | 0.978 | > 10.2 | 0.939 | > 10 | 0.985 | > 16 | – | – | 0.982 | > 5 | – | –
T-24 (bladder, adherent) | 0.968 | > 8 | 0.929 | > 10.2 | 0.587 | 1.07 | 0.907 | > 16 | 0.981 | > 16 | 0.977 | > 5 | – | –
TK10 (kidney, adherent) | 0.975 | > 8 | 0.943 | > 10.2 | – | – | 0.902 | > 16 | 0.904 | > 16 | 0.953 | > 5 | 0.667 | 0.405
U-2-OS (osteosarcoma, adherent) | 0.955 | > 8 | 0.983 | > 10.2 | – | – | 0.945 | > 16 | 0.979 | > 16 | 0.964 | > 5 | 0.553 | 0.177

By IC50 is meant the dose at which the fit gives 50% viability; a fit beyond the top or the lowest dose is shown as a bound at that dose. AUC, from the same fit, is the share of area under the viability curve across the 256-fold dose range; values near 1 show little effect. For some assays here: Where the top dose is marked as inferred, it was calculated from the reported fits.
